The other results are listed elsewhere or left out.

This assay has as its target T1, OsWOX13 (Oryza sativa, UniProt Q5QMM3 1-267).
T1 sequence: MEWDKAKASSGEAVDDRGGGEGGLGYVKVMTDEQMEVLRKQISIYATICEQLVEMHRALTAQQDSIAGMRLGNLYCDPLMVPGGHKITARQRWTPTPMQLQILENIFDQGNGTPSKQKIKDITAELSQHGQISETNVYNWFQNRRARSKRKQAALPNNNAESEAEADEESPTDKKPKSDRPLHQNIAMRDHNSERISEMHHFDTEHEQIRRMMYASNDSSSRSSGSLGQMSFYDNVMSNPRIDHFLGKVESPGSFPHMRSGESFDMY
Nature of the assay: protein-binding microarray (RPBM); PBS, 2% BSA, 51.3 ng/ul salmon testes DNA, 50 uM zinc acetate, 200 nM TF, 25 C, 1 h; high values mean tight binding. As to conditions: protein: recombinant; tags: N-terminal polyhistidine and DsRed monomer fusion (pET32a); label: CyDye5-dUTP incorporated in the synthesized complementary strand; 3' TTTTT single-stranded linker to array surface; dsDNA, one strand shown. The essentials:
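Ni–NTA purification followed expression in E. coli BL21-CodonPlus of transcription factors fused N-terminally to a polyhistidine tag and DsRed. At 200 nM in PBS with 2% BSA, salmon testes DNA and 50 µM zinc acetate, the protein was incubated for 1 h at 25 °C with a custom Agilent array that had been primer-extended with Cy5-dUTP and blocked with 2% BSA. After washing, the array was read on an Axon 4000B scanner. The binding signal is per-feature fluorescence intensity in arbitrary units.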
On to “GCTTATTGATAAATGTTTAGTCTCACAACTGTATGCTAACCGGAGTCACCTAGTGCAG”, for which the binding signal is 19800 fluorescence intensity (a.u.). For “GTGTAACAGGGAAAATCATTACGTTTCGTTCGTCTACAGTCGGAGTCACCTAGTGCAG”, the binding signal was 7450 fluorescence intensity (a.u.). For “TGTAACTGACAGCCTGTTTGTCGAATTATTTAAGGCTCGTCGGAGTCACCTAGTGCAG”, the binding signal was 25400 fluorescence intensity (a.u.).

As to “AGCATTCTCTTAATTTAATACTAAAGTAAACTTATGCATACGGAGTCACCTAGTGCAG”, the binding signal was 3340 fluorescence intensity (a.u.). In the case of “ACCTTATTGATCGTCCATGTTTTCCGGTGAATTAAACCCACGGAGTCACCTAGTGCAG”, the binding signal was 7570 fluorescence intensity (a.u.).

Turning to “CAAATTGGAAAGTGTTAATGGACGTAGTAAAGGCGATGCACGGAGTCACCTAGTGCAG”, the binding signal is 15700 fluorescence intensity (a.u.).

In the case of “AAACTAATTACATAGATTGCAACTAATTTGCGAGACGAATCGGAGTCACCTAGTGCAG”, the binding signal was 35700 fluorescence intensity (a.u.).

As to “TGTCAAAATGATTTAGTAGTTCCCAACACAGTACAAGTTGCGGAGTCACCTAGTGCAG”, the binding signal is 3500 fluorescence intensity (a.u.). Next, “TTATTTCTTAATTGTATTTCTATATGGACTCTATACTCTACGGAGTCACCTAGTGCAG”: 4030 fluorescence intensity (a.u.); “ATAACCATCTAATTTTATGATGATAGTTTGGTTCGTTAAACGGAGTCACCTAGTGCAG”: 3450 fluorescence intensity (a.u.). For the sequence “CTTTATTACCAATCAAAATAGACACCTTACCTACTTTCATCGGAGTCACCTAGTGCAG”, the binding signal was 11300 fluorescence intensity (a.u.). Take “ATATATAGCACTAATAATTGCCCAATTTACGATGGTGTAACGGAGTCACCTAGTGCAG”: the binding signal was 4050 fluorescence intensity (a.u.). Regarding “ATGTATGAGTATTAATTAATTTGTTTTGCGGAGACCATCTCGGAGTCACCTAGTGCAG”, the binding signal is 22400 fluorescence intensity (a.u.).

In the case of “CAAGCTAAATTAATTAGAAACCTAATTGGCAAAATGAAGCCGGAGTCACCTAGTGCAG”, the binding signal was 42400 fluorescence intensity (a.u.). As for “TATCCAATCAAATTTTCACAGTGAATTTTACCGTAGCTAACGGAGTCACCTAGTGCAG”, the figure is 13000 fluorescence intensity (a.u.); as for “CTGACGCTCTAAATTAAGACTGATGAAAGGTGGCCGTCGTCGGAGTCACCTAGTGCAG”, 4760 fluorescence intensity (a.u.). On to “CACCAAAGTCAATCAAATAAATACTCATCATCCATTCCGTCGGAGTCACCTAGTGCAG”, for which the binding signal is 10100 fluorescence intensity (a.u.). Next, “CATCATTGTACTGTTAATTAAATCATCATGGTCATTATCACGGAGTCACCTAGTGCAG”: 5140 fluorescence intensity (a.u.); “AGTGCTGATGGGGAAATTTAGCTAATAGGAATAAGCTACACGGAGTCACCTAGTGCAG”: 9410 fluorescence intensity (a.u.). For “GTTTGATTTATATCTGATCGTCCGAAATGGGTTTATAGTGCGGAGTCACCTAGTGCAG”, the binding signal is 38600 fluorescence intensity (a.u.).

Take “TTGTAATTTCGTATAGCCCAAAATGCCCCTGTCTCCACCTCGGAGTCACCTAGTGCAG”: the binding signal is 3500 fluorescence intensity (a.u.). For “TCTAGAAATAACACGTGGTGATTAATATGGTTGTTTGAACCGGAGTCACCTAGTGCAG”, the binding signal is 3590 fluorescence intensity (a.u.). Turning to “ACACTAACAGTATATCATTAGTTAGTGGCTAACGATGCAACGGAGTCACCTAGTGCAG”, the binding signal was 4770 fluorescence intensity (a.u.). For the sequence “TTATATTAGACTGAAATCGTCTTATATCCGTGTGCATGGGCGGAGTCACCTAGTGCAG”, the binding signal is 8100 fluorescence intensity (a.u.).

For “CTAGATTTATTAATGAGACTTCTATTATCAGTACAAAACACGGAGTCACCTAGTGCAG”, the binding signal is 24300 fluorescence intensity (a.u.).

On to “AACTTGTGATTGACTCCTCAAGCACCTTTGGCATGGCCATCGGAGTCACCTAGTGCAG”, for which the binding signal is 41200 fluorescence intensity (a.u.).

As to “CGAAATTGGATGAAATGGCAATGTGGCAAGATGGTGACGTCGGAGTCACCTAGTGCAG”, the binding signal was 18700 fluorescence intensity (a.u.). Consider “ATGTACTATATTGCAAATCATCAATGATGGATCCAAGGTGCGGAGTCACCTAGTGCAG”, for which the binding signal was 7490 fluorescence intensity (a.u.). On to “CCTAAACAGCACCCTGATTCTTCCATTAGATTGCTCCAATCGGAGTCACCTAGTGCAG”, for which the binding signal was 10000 fluorescence intensity (a.u.).

Turning to “GGATTATGACGTTGCTAATTATGCGCCGTTGCTTTCATCCCGGAGTCACCTAGTGCAG”, the binding signal is 7750 fluorescence intensity (a.u.).

As for “AATAAAATTATCACAAAATTATTGATTTTAAGGTTTAAATCGGAGTCACCTAGTGCAG”, the binding signal is 10100 fluorescence intensity (a.u.).

Consider “TTACTGGGAGAAATTTAATTAGCTGGATTCATATCACAGTCGGAGTCACCTAGTGCAG”, for which the binding signal was 4070 fluorescence intensity (a.u.). “TATTATTATTAATTATTAATAATAATCGGATAAAGTAACCCGGAGTCACCTAGTGCAG”: the binding signal is 16600 fluorescence intensity (a.u.). Next, “GCCAACAATTAATCAAGTAGTACACTCACATGAGTCCTTGCGGAGTCACCTAGTGCAG”: 8250 fluorescence intensity (a.u.); “TACTGGTTGATTGTACACTTTGTCCTTGGATTTTACGGACCGGAGTCACCTAGTGCAG”: 11300 fluorescence intensity (a.u.); “TCAAACAGAGCCAATCAGCCAAGCTTGCTAGTACCATCTACGGAGTCACCTAGTGCAG”: 13300 fluorescence intensity (a.u.). Turning to “AATTGCCAAAATTTTGACAGAATTTCTTATGTATTGACTACGGAGTCACCTAGTGCAG”, the binding signal was 4100 fluorescence intensity (a.u.). On to “AAAATAAATTAATAATAATATGATTAAAATAGCCTTCACTCGGAGTCACCTAGTGCAG”, for which the binding signal is 14300 fluorescence intensity (a.u.). In the case of “TGTGCAATCAGATCGTAGATTAGATAAATAGTTTACGAGACGGAGTCACCTAGTGCAG”, the binding signal was 14000 fluorescence intensity (a.u.). “ACTGTTTCCTTTAATTTGACTCTGTCACAGTTGAGTTCTACGGAGTCACCTAGTGCAG”: the binding signal was 4770 fluorescence intensity (a.u.). In the case of “ATTCACGTTGGATTTGATTTTGTGCGTTAAATCAAAGTAGCGGAGTCACCTAGTGCAG”, the binding signal is 4430 fluorescence intensity (a.u.). As for “TTGATATAATAGAGAATTTTACCAAGAAATTAAAGCATCCCGGAGTCACCTAGTGCAG”, the binding signal is 5220 fluorescence intensity (a.u.). In the case of “ATAAATATGACTGACATGTGGGTCCCCACTGACACGTAGGCGGAGTCACCTAGTGCAG”, the binding signal is 15300 fluorescence intensity (a.u.). In the case of “CTTAATTATATATTTACCTACTTCTCCTCATGCATGAATCCGGAGTCACCTAGTGCAG”, the binding signal was 39100 fluorescence intensity (a.u.).

On to “TCCAGCACCAATCAATAAATTGGTTTCAATACACTTTCCCCGGAGTCACCTAGTGCAG”, for which the binding signal is 15400 fluorescence intensity (a.u.). Regarding “TTTTAATTCTGAATTTTAACTATTTCTAAATTGTATTTCTCGGAGTCACCTAGTGCAG”, the binding signal is 4370 fluorescence intensity (a.u.). As for “TTGATTGGGAGGAAGCCAAGAAGAAGTCAAGAACTGCCCACGGAGTCACCTAGTGCAG”, the binding signal was 31900 fluorescence intensity (a.u.).

For “TGCCCTGTTACGGTTGACAGCTAATTACCTTGATTCGTTTCGGAGTCACCTAGTGCAG”, the binding signal is 11000 fluorescence intensity (a.u.). For the sequence “TACAAATAAACAGAGGTTCAGTCACCAACAAATAATTGTGCGGAGTCACCTAGTGCAG”, the binding signal was 10600 fluorescence intensity (a.u.).

“TGCTTATGTGATTATATCAAGGGAGGATTAGGGTTATAATCGGAGTCACCTAGTGCAG”: the binding signal is 7950 fluorescence intensity (a.u.). For the sequence “GTTTTATTCAGAGAAAATTAATTAGATGTTACAGTGCAGTCGGAGTCACCTAGTGCAG”, the binding signal is 5210 fluorescence intensity (a.u.). On to “TTTGACAGGAGGTGTTACTGAAACCCCGTGCCCATACAAACGGAGTCACCTAGTGCAG”, for which the binding signal was 6840 fluorescence intensity (a.u.).

Turning to “ACAAACTAATTATAATCAATATGAAGCAACCAATAATGGACGGAGTCACCTAGTGCAG”, the binding signal was 49200 fluorescence intensity (a.u.). For “TTTTATAATTATATAGCACACCCCACTTCACACGCATATCCGGAGTCACCTAGTGCAG”, the binding signal was 15300 fluorescence intensity (a.u.).
